# Test results published in the supplement of paper PMC7266297.
# Where a name gives a salt, the structure may show the parent alone. The list shows a part of the results. Repeats are few or missing, and single values can be far off.
# System: KB-3-1
# Test: growth inhibition relative to DMSO control (SRB); cervical cancer cells: KB-3-1 is the parent and KB-V1 overexpresses MDR1; SRB is the sulforhodamine B stain; higher = more growth inhibition
# Conditions: 1 µM; 72 h
# 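Note: Read-out is SRB optical density at 490 nm, with the control being wells given 0.5% DMSO vehicle, and compound added one day after cells were plated.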
row,SMILES,growth inhibition [%]
1,C[C@H](Oc1cc(-c2cnn(C3CCNCC3)c2)cnc1N)c1c(Cl)ccc(F)c1Cl [(S)-crizotinib],63.7
2,CC(C)c1cc(-c2n[nH]c(=O)n2-c2ccc3c(ccn3C)c2)c(O)cc1O [Ganetespib (STA-9090)],86.2
3,NC1(Cc2ccc(Cl)cc2)CCN(c2ncnc3[nH]ccc23)CC1,< 0
4,CCN(CC)CC#CCOC(=O)C(O)(c1ccccc1)C1CCCCC1 (configuration not stated) [Oxybutynin chloride],< 0
5,CC[N+](CC)(CC)CCOc1cccc(OCC[N+](CC)(CC)CC)c1OCC[N+](CC)(CC)CC [Gallamine Triethiodide],31.3
6,CC(C)(O)[C@H]1CC[C@@](C)([C@H]2[C@@H](O)C[C@@]3(C)[C@@H]4C[C@H](O[C@@H]5O[C@H](CO)[C@@H](O)[C@H](O)[C@H]5O)[C@H]5C(C)(C)[C@@H](O[C@@H]6OC[C@@H](O)[C@H](O)[C@H]6O)CC[C@@]56C[C@@]46CC[C@]23C)O1 [Astragaloside A],< 0
7,CC(C)c1nc(N(C)S(C)(=O)=O)nc(-c2ccc(F)cc2)c1/C=C/[C@@H](O)C[C@@H](O)CC(=O)O [Rosuvastatin Calcium],< 0
8,COC(=O)C1=C(C)NC(C)=C(C(=O)OCCN2CCN(C(c3ccccc3)c3ccccc3)CC2)C1c1cccc([N+](=O)[O-])c1 (configuration not stated) [Manidipine 2HCl],28.7
9,Cn1cc(-c2ccc3nnc(C(F)(F)c4ccc5ncccc5c4)n3n2)cn1,29.7
10,COC1=C2C[C@@H](C)C[C@H](OC)[C@H](O)[C@@H](C)/C=C(\C)[C@H](OC(N)=O)[C@@H](OC)/C=C\C=C(/C)C(=O)NC(=CC1=O)C2=O [Geldanamycin],55.6
11,COc1cc2nccc(Oc3ccc(NC(=O)Nc4cc(C)on4)c(Cl)c3)c2cc1OC [Tivozanib (AV-951)],43.7
12,Nc1cccc2c1C(=O)N(C1CCC(=O)NC1=O)C2=O (configuration not stated) [Pomalidomide],35.8
13,O=C(Nc1cc(C(F)(F)F)cc(C(F)(F)F)c1)c1cc(Cl)ccc1O,61.7
14,COc1cc2c(cc1OC)CN(CCc1ccc(NC(=O)c3cc(OC)c(OC)cc3NC(=O)c3cnc4ccccc4c3)cc1)CC2 [Tariquidar],43.7
15,CC(=O)Oc1cc(C(F)(F)F)ccc1C(=O)O [Triflusal],< 0
16,O=C1[C@H](Cc2ccc(O)cc2)N2C(=O)CCN(C(=O)NCc3ccccc3)[C@H]2CN1Cc1cccc2ccccc12,< 0

row,SMILES,growth inhibition [%]
1,C=CCn1c(=O)c2cnc(Nc3ccc(N4CCN(C)CC4)cc3)nc2n1-c1cccc(C(C)(C)O)n1,97.9
2,Cc1ccc(O)c([C@H](CCN(C(C)C)C(C)C)c2ccccc2)c1 [Tolterodine tartrate],26
3,CN1CC[C@H](c2c(O)cc(O)c3c(=O)cc(-c4ccccc4Cl)oc23)[C@H](O)C1 [Flavopiridol HCl],100
4,Cn1cc(CNCC2CCN(c3ncc(C(=O)NO)cn3)CC2)c2ccccc21,100
5,CCOC(=O)C1=C(C)NC(C)=C(C(=O)OC)C1c1cccc(Cl)c1Cl (configuration not stated) [Felodipine],48.5
6,CC(C)[C@H](O)C(=O)N[C@@H](C)C(=O)N[C@@H]1C(=O)N(C)CCc2ccccc21,29.3
7,C=C1C(=O)O[C@@H]2/C=C(\C)CC/C=C(\C)CC[C@@H]12 [Costunolide],25.7
8,CN1CCN(C(=O)c2cc3cc(Cl)ccc3[nH]2)CC1,< 0
9,Cc1cc(Cl)ccc1OCCCC(=O)NO [Droxinostat],15.6
10,CNC(=O)c1cccc(-c2ccc3c(N4CCOC[C@@H]4C)nc(N4CCOC[C@@H]4C)nc3n2)c1,70
11,CN(C)C(=O)C(CCN1CCC(O)(c2ccc(Cl)cc2)CC1)(c1ccccc1)c1ccccc1 [Loperamide HCl],27.8
12,Nc1ncnc2c1c(-c1cccc(OCc3ccccc3)c1)cn2C1CC(CN2CCCC2)C1 (configuration not stated),59.7
13,COc1cc(N2CCC(N)CC2)ccc1Nc1ncc(Cl)c(-c2c[nH]c3ccccc23)n1,32
14,CN1CCN(C2CCN(C(=O)Nc3cc(Oc4ccc(NC(=O)C5(C(=O)Nc6ccc(F)cc6)CC5)c(F)c4)ccn3)CC2)CC1 [Golvatinib (E7050)],49.2
15,COCCCN1CCC(NC(=O)c2cc(Cl)c(N)c3c2OCC3)CC1 [Prucalopride],2.38
16,C=C(C)[C@@H]1CC[C@]2(C(=O)O)CC[C@]3(C)[C@H](CC[C@@H]4[C@@]5(C)CC[C@H](O)C(C)(C)[C@@H]5CC[C@]43C)[C@@H]12 [Betulinic acid],< 0
